Measurements from PubChem BioAssay AID504332 (National Center for Advancing Translational Sciences (NCATS), 2011).
Hit rate of the full screen: of about 350,000 compounds, about 31,000 (8.9%) were called active. The inconclusive results got no clear call from the source; some entries with a clear call stand among them for comparison. The call rests on the fitted dose curve; in most records, active means well fitted inhibition curve with a large enough effect; inconclusive means small, poorly fitted or top-dose-only effect; inactive means no such curve, though single readings can be large or run the other way. A potency beside an inconclusive call is a rough fit, not a confirmed value.

These compounds were tested against Histone-lysine N-methyltransferase EHMT2 (Homo sapiens) (UniProt Q96KQ7) (assay: qHTS Assay for Inhibitors of Histone Lysine Methyltransferase G9a). Conditions: G9a H3K9 monomethylation, AlphaScreen, 2 h; activity, negative = inhibition: at 59 µM (top of the series) unless noted.
How it was run: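 Readings reflect AlphaScreen signal from monomethyl-H3K9 antibody detection. HMT at 20 nM; substrate b-H3K9 500 nM; cofactor SAM 20 uM; 2 h RT reaction; compounds tested as titrations in qHTS with 15 min preincubation.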
Further: nearly all actives have a fitted effect of over 75% in size.
On the % scale 0 is the no-effect control and ±100 the full control effect; potency means the concentration at half of the fitted maximal effect; tags describe the fitted curve by direction and shape.

UniProt Q96KQ7, sequence (Q96KQ7 whole entry, looked up): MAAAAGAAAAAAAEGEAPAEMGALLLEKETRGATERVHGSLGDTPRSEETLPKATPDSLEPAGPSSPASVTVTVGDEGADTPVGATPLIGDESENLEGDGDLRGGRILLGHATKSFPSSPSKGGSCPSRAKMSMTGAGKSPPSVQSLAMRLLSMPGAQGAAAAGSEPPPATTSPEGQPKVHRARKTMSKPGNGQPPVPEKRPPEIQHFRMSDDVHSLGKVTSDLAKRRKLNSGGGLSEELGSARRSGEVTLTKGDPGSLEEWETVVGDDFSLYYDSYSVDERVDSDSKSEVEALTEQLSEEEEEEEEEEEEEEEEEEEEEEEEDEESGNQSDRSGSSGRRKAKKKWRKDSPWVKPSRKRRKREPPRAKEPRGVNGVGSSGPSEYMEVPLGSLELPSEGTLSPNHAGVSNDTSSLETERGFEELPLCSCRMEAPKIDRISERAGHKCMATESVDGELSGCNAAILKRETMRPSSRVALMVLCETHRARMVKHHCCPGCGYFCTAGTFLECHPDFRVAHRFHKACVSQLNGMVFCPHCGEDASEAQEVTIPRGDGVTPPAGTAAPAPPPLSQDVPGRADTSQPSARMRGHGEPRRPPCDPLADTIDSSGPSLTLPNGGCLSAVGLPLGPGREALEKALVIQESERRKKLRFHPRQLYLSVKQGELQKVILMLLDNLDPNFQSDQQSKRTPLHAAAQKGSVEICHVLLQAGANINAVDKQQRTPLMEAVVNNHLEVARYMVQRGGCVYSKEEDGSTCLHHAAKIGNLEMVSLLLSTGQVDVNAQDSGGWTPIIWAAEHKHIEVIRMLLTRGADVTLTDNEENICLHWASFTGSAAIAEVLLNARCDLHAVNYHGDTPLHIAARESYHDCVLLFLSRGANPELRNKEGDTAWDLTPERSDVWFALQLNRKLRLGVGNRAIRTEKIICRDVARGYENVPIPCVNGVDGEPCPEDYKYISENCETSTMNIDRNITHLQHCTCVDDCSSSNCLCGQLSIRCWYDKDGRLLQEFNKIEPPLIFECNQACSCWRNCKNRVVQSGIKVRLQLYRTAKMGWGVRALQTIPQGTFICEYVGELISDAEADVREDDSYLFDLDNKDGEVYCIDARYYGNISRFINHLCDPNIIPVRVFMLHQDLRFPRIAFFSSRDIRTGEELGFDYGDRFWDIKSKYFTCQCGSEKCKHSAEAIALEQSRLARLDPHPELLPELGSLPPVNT

SMILES | Potency | activity, negative = inhibition
Cc1nc(S/C(=C/c2ccc(OCc3ccc(C(=O)O)cc3)cc2)C(=O)O)n[nH]1 | inconclusive: 89.1 µM [inhibitor, single point] | –
CO/N=C/c1ccc(N2CCN(C(=O)c3cccc(C(F)(F)F)c3)CC2)c([N+](=O)[O-])c1 | – | inconclusive: -109% [inhibitor]
COc1ccc(CNC(=O)CCc2c(C)nn(-c3ccc(N4CCCC4)nn3)c2C)cc1 | inactive | –
CC(=O)NC(=S)Nc1ccccc1N1CCN(C(=O)c2ccccc2)CC1 | inconclusive: 70.8 µM [inhibitor, partial curve, poor fit] | –
CCCCCOC(=O)CSc1nc2sc3c(c2c(=O)n1Cc1ccccc1)CC(C)(CC)OC3 (centres undefined) | inactive | –
Cc1cc2c(cc1S(=O)(=O)CCC(=O)N1CCN(c3ccccc3)CC1)OCC(=O)N2 | inactive | –
C[C@H]1c2cccc(O)c2C(O)=C2C(=O)[C@]3(O)C(O)=C(C(N)=O)C(=O)C(N(C)C)[C@@H]3[C@@H](O)C21 (some centres undefined) | active: 3.16 µM | –
O=C(COC(=O)c1ccco1)NCc1cccs1 | inconclusive: 79.4 µM [inhibitor, partial curve, poor fit] | –
CC(CCc1ccccc1)NC(=O)CN1CCN(c2ccccc2)CC1 (centres undefined) | inactive | –
NS(=O)(=O)c1cccc(NC(=O)CSc2ncc(C(F)(F)F)cc2Cl)c1 | inconclusive: 89.1 µM [inhibitor, single point] | –
C[n+]1ccccc1C1CCCC/C1=N\Nc1ccc([N+](=O)[O-])cc1[N+](=O)[O-] (centres undefined) | active: 2 µM | –
COC(=O)c1ccc(NC(=O)c2c(-c3ccccc3)c(-c3ccccc3)nn(C)c2=O)cc1 | inconclusive: 0.708 µM [inhibitor, partial curve, poor fit] | –
Cc1cc(OCC(=O)N2CCC(C(N)=O)CC2)c2c(C)cc(=O)oc2c1 | inactive | –
COc1cc2nc(N(CCN(C)C)C(=O)c3ccc(S(=O)(=O)N(C)CC4CCCO4)cc3)sc2cc1OC (centres undefined) | active: 31.6 µM | –
Oc1c(C(c2ccccc2)N2CCc3ccccc3C2)sc2ncnn12 (centres undefined) | active: 3.98 µM | –
CCCCCc1cc(=O)oc2c(C(CCN3CCCC3)c3ccc(N(C)C)cc3)c(OC)cc(OC)c12 (centres undefined) | – | inconclusive: -97.1% [inhibitor] [at 12.7 µM]
O=c1c2cc(N3CCOCC3)ccc2[nH]c(=S)n1CCc1ccccc1 | inactive | –
N#Cc1ccc(N/N=C/c2cn(-c3ccccc3)nc2-c2ccccc2)c([N+](=O)[O-])c1 | inconclusive: 0.708 µM [inhibitor, full curve, poor fit] | –
Cc1ccn2cc(CNS(=O)(=O)c3ccc(Cl)s3)nc2c1 | inconclusive: 89.1 µM [inhibitor, single point] | –
